Results taken from PubChem BioAssay (Tox21).
“And” between values parts separate entries of the source, which are not always exact repeats. Identical values can stand only once. The inconclusive results got no clear call from the source; some entries with a clear call stand among them for comparison. A potency beside an inconclusive call is a rough fit, not a confirmed value. Some compounds were tested as several samples or in several runs, with calls that do not always agree. The source made the active and inactive calls. Unless noted, calls come from the whole dose curve; as a rule, active = well fitted curve in the direction sought with a large enough effect in the repeat runs; inconclusive = weak or mixed curves; inactive = no such curve, though single readings can be large; an effect the other way counts as inactive or inconclusive.

What was measured:
[1] = target: Nuclear receptor ROR-gamma (Homo sapiens) (UniProt P51449); assay: qHTS assay to identify small molecule antagonists of the retinoid-related orphan receptor gamma (ROR-gamma) signaling pathway (AID 1159521; note: nearly all actives have a fitted effect of over 50% in size)
Summary of the method: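 CHO cells expressing RORγ under a TET-on promoter, luciferase under RORE control. Dox 1 uM final, 16 h; compounds added 2 h prior. Luminescence decrease measured.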

[2] = qHTS assay to identify small molecule agonists of the AP-1 signaling pathway (AID 1159526; calls by dose curve; for activation: % is set by controls: 0 for no effect and ±100 for the full control effect); details: ME-180 AP-1-bla reporter, beta-lactamase FRET ratio, 5 h; activation: at 76.8 µM (top of the series) unless noted
[3] = qHTS assay to identify small molecule agonists of the retinoic acid receptor (RAR) signaling pathway (AID 1159553); details: C3RL4 RARE luciferase reporter, agonist, 6 h; activation: at 73.3 µM (top of the series) unless noted; for activation: % is set by controls: 0 for no effect and ±100 for the full control effect
Summary of the method: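 C3RL4 cells carrying a RARE luciferase reporter were plated overnight at 37 C, then exposed to compounds in DMSO for 6 hr at 37 C and 5% CO2. Luminescence was read 30 min after luciferase reagent addition at room temperature.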

[4] = target: Retinoic acid receptor RXR-alpha (Homo sapiens) (UniProt P19793); assay: qHTS assay to identify small molecule agonists of the RXR signaling pathway (AID 1159527; calls by dose curve; note: nearly all actives have a fitted effect of over 35% in size; for activation: % is set by controls: 0 for no effect and ±100 for the full control effect); details: HEK293T RXRa-UAS-bla, beta-lactamase ratio, 16 h
Summary of the method: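 Beta-lactamase reporter assay, agonist format. Engineered HEK 293T line, charcoal-stripped FBS at 2%, overnight (16 hr) exposure, fluorescence at 460 and 530 nm after 405 nm excitation.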

[5] = qHTS assay to identify small molecule agonists of the RXR signaling pathway - cell viability counter screen (AID 1159529); note: nearly all actives have a fitted effect of over 50% in size
Summary of the method: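 Same-well viability check after the LiveBLAzer FRET read: CellTiter-Glo added, luminescence measured after 30 min at room temperature. Reporter HEK 293T cells had been treated with compounds for 16 hr following a 5 hr preincubation.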

[6] = qHTS assay to identify small molecule antagonists of the retinoic acid receptor (RAR) signaling pathway (AID 1159552; note: nearly all actives have a fitted effect of over 50% in size)
Summary of the method: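 Readout: luciferase luminescence, 30 min post-reagent at RT. Setup: C3RL4 RARE reporter cells, compounds plus retinol 1 uM final, 6 hr incubation at 37 C and 5% CO2.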

[7] = qHTS assay to identify small molecule antagonists of the retinoid acid receptor (RAR) signaling pathway - cell viability counter screen (AID 1159551); note: nearly all actives have a fitted effect of over 35% in size
Summary of the method: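 C3RL4 cells were seeded overnight at 37 C, then treated with compounds plus 1 uM (final) retinol for 6 h at 37 C. Viability was read as ATP by CellTiter-Glo luminescence after 30 min at room temperature.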

[8] = qHTS assay to identify small molecule agonists of the AP-1 signaling pathway - cell viability counter screen (AID 1159525; calls by dose curve; note: nearly all actives have a fitted effect of over 55% in size)
Summary of the method: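 ME-180 AP-1-bla, 2500 cells/well, Opti-MEM + 0.5% dialyzed FBS; overnight 37 °C; cpd 15-pt titration, 5 h 37 °C; CellTiter-Glo 30 min RT; luminescence read; normalised to TOAB and DMSO controls.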

[9] = activation: at 76.8 µM (top of the series) unless noted
Potency is the fitted concentration of half-maximal effect; tags give direction and shape of the fitted curve or compound fluorescence and quenching.

Sequence of UniProt P19793 (P19793 whole entry, looked up): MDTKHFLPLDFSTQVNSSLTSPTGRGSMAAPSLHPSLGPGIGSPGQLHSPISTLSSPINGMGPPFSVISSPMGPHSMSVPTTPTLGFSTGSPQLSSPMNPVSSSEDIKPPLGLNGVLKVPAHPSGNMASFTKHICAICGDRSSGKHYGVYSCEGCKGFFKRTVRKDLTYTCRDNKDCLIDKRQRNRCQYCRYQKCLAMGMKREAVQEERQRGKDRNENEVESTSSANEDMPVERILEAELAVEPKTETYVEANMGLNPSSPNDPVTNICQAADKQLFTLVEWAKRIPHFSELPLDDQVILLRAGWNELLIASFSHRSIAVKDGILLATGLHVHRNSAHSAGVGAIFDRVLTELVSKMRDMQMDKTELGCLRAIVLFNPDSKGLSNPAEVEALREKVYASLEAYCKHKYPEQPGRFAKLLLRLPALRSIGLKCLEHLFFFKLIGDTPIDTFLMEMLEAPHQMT

**Q.** Which results are given for `CC(C)NCC(O)c1ccccc1Cl` (configuration not stated)?
**A.** Potency [1]: inconclusive: 0.668 µM [inhibitor, single point]; Potency [2]: inactive; Potency [3]: inactive

**Q.** For `COP(N)(=O)SC` (configuration not stated), which Potency [1] is on record?
**A.** inconclusive: 6.81 µM [inhibitor, single point]

**Q.** What about the activation [4, 9] of the same compound?
**A.** inconclusive: 20.4%

**Q.** What does the source list for `Oc1c(Br)cc(Br)cc1Br`?
**A.** Potency [1]: inconclusive: 68.7 µM [inhibitor, single point] and inconclusive: 77 µM [inhibitor, single point]; activation [2]: inconclusive: -15.4% and inconclusive: -14.1%; activation [4, 9]: inconclusive: -23.8% and inconclusive: -20.6%; Potency [5]: inconclusive: 9.79 µM [cytotoxic, full curve] and inconclusive: 21.9 µM [cytotoxic, partial curve]

**Q.** Which Potency [1] does the source give for `CCSCc1ccccc1OC(=O)NC` here?
**A.** inactive

**Q.** And the Potency [2]?
**A.** inactive

**Q.** And the Potency [4, 9]?
**A.** inactive

**Q.** And the Potency [5]?
**A.** inactive

**Q.** What does the source list for `Nc1cc(Cl)cc(C(=O)O)c1Cl`?
**A.** Potency [1]: inactive; Potency [4, 9]: inactive

**Q.** For `COC(=O)N(C(=O)N1CO[C@@]2(C(=O)OC)Cc3cc(Cl)ccc3C2=N1)c1ccc(OC(F)(F)F)cc1`, which Potency [1] is on record?
**A.** inconclusive: 3.32 µM [inhibitor, full curve]

**Q.** And the Potency [2]?
**A.** inconclusive: 18.8 µM [falling, partial curve]

**Q.** What about the Potency [4, 9] of the same compound?
**A.** inconclusive: 1.5 µM [inhibitor, full curve]

**Q.** And the Potency [6]?
**A.** inconclusive: 11.8 µM [inhibitor]

**Q.** Which Potency [1] does the source give for `O=C(CCl)c1ccccc1` here?
**A.** active: 54.5 µM

**Q.** What about the Potency [2] of the same compound?
**A.** inconclusive: 54.9 µM

**Q.** And the Potency [4, 9]?
**A.** inconclusive: 13.8 µM [inhibitor, full curve]

**Q.** What about the Potency [7] of the same compound?
**A.** inconclusive: 48.6 µM

**Q.** Which results are given for `N#Cc1cc([N+](=O)[O-])ccc1N`?
**A.** Potency [1]: inconclusive: 30.6 µM [inhibitor, partial curve, poor fit]; Potency [2]: inconclusive: 0.0123 µM [activator, full curve, poor fit]; activation [4, 9]: inconclusive: 4.05%; Potency [6]: inactive

**Q.** For `N#CNC#N`, which Potency [1] is on record?
**A.** inactive

**Q.** And the Potency [4, 9]?
**A.** inactive

**Q.** For `Nc1n[nH]c(N)n1`, which Potency [1] is on record?
**A.** active: 15.6 µM

**Q.** What about the Potency [2] of the same compound?
**A.** inconclusive: 31.5 µM [activator, partial curve]

**Q.** And the Potency [4, 9]?
**A.** inconclusive: 12.5 µM [inhibitor, partial curve, poor fit]

**Q.** What about the Potency [5] of the same compound?
**A.** inconclusive: 19.8 µM [rising, partial curve, poor fit]

**Q.** Which Potency [1] does the source give for `O=S(=O)(Cl)Cl` here?
**A.** inactive

**Q.** What about the Potency [4, 9] of the same compound?
**A.** inactive

**Q.** Which results are given for `Nc1ccccc1C(=O)OC/C=C/c1ccccc1`?
**A.** Potency [8]: inconclusive: 55.1 µM [cytotoxic, single point]; Potency [2]: inconclusive: 55.1 µM [falling, single point]; Potency [4, 9]: inconclusive: 12.3 µM [inhibitor, full curve]; Potency [5]: inconclusive: 13.8 µM [cytotoxic, full curve]; Potency [6]: inactive; Potency [3]: active: 1.22 µM

**Q.** For `O=NN(c1ccccc1)c1ccccc1`, which Potency [8] is on record?
**A.** inactive

**Q.** Which results are given for `O=NN1CCNCC1`?
**A.** Potency [1]: inconclusive: 30.3 µM [inhibitor, single point]; Potency [3]: inactive

**Q.** With `CC(C)(C)c1ccccc1O` as the compound, how does the Potency [8] read?
**A.** inconclusive: 55.6 µM [cytotoxic, partial curve, poor fit]

**Q.** And the Potency [2]?
**A.** inconclusive: 55.6 µM

**Q.** And the activation [2]?
**A.** inconclusive: 18.6%

**Q.** What about the Potency [5] of the same compound?
**A.** inconclusive: 49.5 µM [cytotoxic, partial curve, poor fit]

**Q.** With `C[C@@H]1CC2=CC(=O)CC[C@@H]2[C@H]2CC[C@@]3(C)[C@@H](CC[C@]3(C)O)[C@@H]21` as the compound, how does the Potency [1] read?
**A.** inconclusive: 29.8 µM [inhibitor, single point]

**Q.** And the Potency [6]?
**A.** inconclusive: 21.1 µM [inhibitor, partial curve]

**Q.** Which Potency [1] does the source give for `CCCCCCCCC(=O)NCc1ccc(O)c(OC)c1` here?
**A.** inconclusive: 0.611 µM [inhibitor, single point]

**Q.** What about the activation ([4]; at 35.3 µM (top of the series)) of the same compound?
**A.** inconclusive: -14.3%

**Q.** What about the activation ([4]; at 76.8 µM (top of the series)) of the same compound?
**A.** inconclusive: -22.8%

**Q.** And the Potency [3]?
**A.** inconclusive: 29.8 µM [activator, single point]

**Q.** What about the activation [3] of the same compound?
**A.** inconclusive: 8.15% [phenotype inactive]

**Q.** Which Potency [8] does the source give for `CCOP(=S)(OCC)Oc1ccc(Cl)cc1Cl` here?
**A.** inactive

**Q.** What about the Potency [4, 9] of the same compound?
**A.** inactive

**Q.** What about the Potency [3] of the same compound?
**A.** inactive

**Q.** What does the source list for `CCNc1nc(NC(C)C)nc(SC)n1`?
**A.** Potency [1]: inconclusive: 68.6 µM [inhibitor, single point]; activation [4, 9]: inconclusive: 20.2%; Potency [5]: inactive

**Q.** Which Potency [1] does the source give for `O=C1C(Cl)C(CCl)CN1c1cccc(C(F)(F)F)c1` (configuration not stated) here?
**A.** inconclusive: 43.3 µM [inhibitor, partial curve, poor fit]

**Q.** What about the Potency [4, 9] of the same compound?
**A.** inconclusive: 0.0692 µM [inhibitor, full curve]

**Q.** What about the Potency [5] of the same compound?
**A.** inconclusive: 38.9 µM [cytotoxic, partial curve, poor fit]

**Q.** For `CC(Oc1ccc(Oc2ncc(C(F)(F)F)cc2Cl)cc1)C(=O)O` (configuration not stated), which Potency [1] is on record?
**A.** active: 27.3 µM

**Q.** What about the Potency [4, 9] of the same compound?
**A.** inconclusive: 21.9 µM [fluorescent, partial curve, poor fit]

**Q.** What about the Potency [5] of the same compound?
**A.** inconclusive: 43.6 µM [cytotoxic, partial curve]

**Q.** For `CCCN(CCOc1c(Cl)cc(Cl)cc1Cl)C(=O)n1ccnc1`, which Potency [1] is on record?
**A.** inconclusive: 31.3 µM [inhibitor, partial curve, poor fit] and inconclusive: 54.5 µM [inhibitor, partial curve, poor fit]

**Q.** And the Potency [4, 9]?
**A.** inconclusive: 19.9 µM [inhibitor, partial curve] and inconclusive: 1.1 µM [activator, single point]

**Q.** What about the Potency [5] of the same compound?
**A.** inconclusive: 0.0112 µM [cytotoxic, partial curve, poor fit]

**Q.** Which Potency [1] does the source give for `N#CSCc1ccccc1` here?
**A.** inconclusive: 1.22 µM [inhibitor, full curve, poor fit]

**Q.** What about the activation [3] of the same compound?
**A.** inconclusive: -8.6% [phenotype inactive] [at 94.8 µM]

**Q.** With `ClCCBr` as the compound, how does the Potency [1] read?
**A.** inactive

**Q.** And the activation [4, 9]?
**A.** inconclusive: 14.1%

**Q.** What about the activation ([4]; at 76.8 µM (top of the series)) of the same compound?
**A.** inactive: 7.87%

**Q.** For `O=[N+]([O-])c1cccc2cccnc12`, which Potency [1] is on record?
**A.** inactive

**Q.** What about the activation [4, 9] of the same compound?
**A.** inconclusive: -6.39%

**Q.** And the Potency [3]?
**A.** inactive

**Q.** For `CCCCOC(=O)c1ccccc1N`, which Potency [8] is on record?
**A.** inactive

**Q.** What about the Potency [4, 9] of the same compound?
**A.** inactive

**Q.** And the Potency [5]?
**A.** inconclusive: 24.7 µM [cytotoxic, partial curve, poor fit]

**Q.** And the Potency [3]?
**A.** inconclusive: 54.8 µM [activator, partial curve, poor fit]
